# Changes are numbered by the printed parent chain. The list shows a part of the results.
# T1: UNK ZnF1-3 (human, UniProt Q9C0B0 31-174)
# T1 sequence: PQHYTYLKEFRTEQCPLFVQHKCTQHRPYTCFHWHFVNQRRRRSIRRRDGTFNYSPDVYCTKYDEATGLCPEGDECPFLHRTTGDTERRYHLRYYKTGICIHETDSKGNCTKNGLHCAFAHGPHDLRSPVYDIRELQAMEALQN
# B1: chr4:25749455:25749456:-_ENSG00000091490_ENST00000264868|hu_hu|hu_hu_hu_mus_False|8_18 (ssRNA)
# RNA: GGGAGUUCUACAGUCCGACGAUCGCACUAUGACCUCUAGAAAAAUCCACAGGGGGAAAAAAUGUAAACCAAUGUACAAUGUUAUCGCCUUCCCUGUGUGUGGAGUGUUUGUCUCAAUAUUUCAAGGUGCCUUAUAAUUUGGGACAACAGAGGAUUGAGCAUCA
# B2: chr3:138219032:138219033:+_ENSMUSG00000028156_ENSMUST00000029803|mus_mus|FALSE|FALSE (ssRNA)
# RNA: GGGAGUUCUACAGUCCGACGAUCUGUUACACGAGGAAAAAAACAAAAGCAAAACAAAUGAAAAACUGAAAUCAGAAUCACUAAUGUUAUCAAGGAGGGAAGCAAAUAAAUUAAAUCUAGCAGCCAUCAGCAAGAGGACAGCAACAACAGAGGAUUGAGCAUCA
# B3: chr4:140556289:140556290:+_ENSMUSG00000036622_ENSMUST00000037055|mus_mus|mus_mus_mus_hu_False|38_58 (ssRNA)
# RNA: GGGAGUUCUACAGUCCGACGAUCGAUGGAGCUCACCAGGCCCCCUUUUGCCGUGCAGAACCCUGUGCGGGUCACCACUGCUAGCACGUGCGGUCCCACGUAGGCUCGGGCCUGCAAGAUGAGGGUCCCGCAGAAGAGUGUGUGCAACAGAGGAUUGAGCAUCA
# B4: chr1:21069516:21069517:-_ENSG00000127483_ENST00000312239|hu_hu|motif|central (ssRNA)
# RNA: GGGAGUUCUACAGUCCGACGAUCUUAAAAUGUCAAGUGCCACAGGGAAGAGAAAUGAUAACCAGAAAUUUGUAUUUCGGGCGGGUACUAUUUAACACAACUUCACAAUACUAAAACAAAUACAAAUAAGAAAGGGUUAGGUAGCAACAGAGGAUUGAGCAUCA
# B5: chr10:10886374:10886375:+_ENSMUSG00000090112_ENSMUST00000044053|mus_hu|motif|central (ssRNA)
# RNA: GGGAGUUCUACAGUCCGACGAUCAUGUGGGAUAUCGACAUAAUUUAAUUCUGAACGCAGUACAUCAUAGGUAAUGAUAACGGUAUCCUGUUCUGCCAAAAAAUGAGGUUGUAAAAAGCCAUCUUUCUUCACUCCUUGAUAUACCAACAGAGGAUUGAGCAUCA
# B6: chr1:46067948:46067949:+_ENSG00000132780_ENST00000351223|hu_hu|motif|central (ssRNA)
# RNA: GGGAGUUCUACAGUCCGACGAUCUUCCUGGAAUGCAUUGACAGCUGCUGGAAUAUCCCCCAUCACCAGAUGUUUCUGUCCGGAACCCAAUAGUUUCUUAGCUUCACUAUCCACAUCCAGACUCUCCACUUUAUCUGCAGAUGUCAACAGAGGAUUGAGCAUCA
# B7: chr4:56291666:56291667:+_ENSG00000134851_ENST00000381334|hu_hu|FALSE|FALSE (ssRNA)
# RNA: GGGAGUUCUACAGUCCGACGAUCACAGUAUUUUUCCAUCACUUUUAGUUGUAAUGUACACUAUGUACAGAAAGAUAAUACUACCUAUUUUAAACUAAAUAUAGAUGAACAAACAGCUUGUUAAAAACCAGAAUCAGGGCUUAUCAACAGAGGAUUGAGCAUCA
# B8: chr4:138660994:138660995:-_ENSMUSG00000050608_ENSMUST00000143971|mus_mus|FALSE|FALSE (ssRNA)
# RNA: GGGAGUUCUACAGUCCGACGAUCAAAGUCAUGCUGACAGUUGGAGUAGGCCAUUCCCAAUCCCACGCCAGAACCAAAGGCUAAUGGCCACAUUCUUCUCUUAAAGAAGGUGAGGGAGAAAACAAUUCCUAAUCCAAACCCAGUCAACAGAGGAUUGAGCAUCA
# B9: chr2:216225781:216225782:-_ENSG00000115414_ENST00000323926|hu_hu|FALSE|FALSE (ssRNA)
# RNA: GGGAGUUCUACAGUCCGACGAUCAAAUACUGGGAAAAAUUGAUAAAUAACAGGUAAGAGAAAGAUAUUUCUAGGCAAUUACUAGGAUCAUUUGGAAAAAGUGAGUACUGUGGAUAUUUAAAAUAUCACAGUAACAAGAUCAUGCAACAGAGGAUUGAGCAUCA
# B10: chr8:117878989:117878990:-_ENSG00000164754_ENST00000297338|hu_hu|hu_hu_hu_mus_True|8_48 (ssRNA)
# RNA: GGGAGUUCUACAGUCCGACGAUCCCAGAGGCCCUCGUUUACUGAGGACAAAAUGUGCGUAGAACAUUUUUCUUAUUUGCUAUGAAAACAGAAGAAACCUGGAUCUCGGCGGGGAGCCGGGAGGGGUUGGGUGGCCCGGGAGGGCAACAGAGGAUUGAGCAUCA
# B11: chr6:40197388:40197389:+_ENSMUSG00000057716_ENSMUST00000061740|mus_mus|mus_mus_mus_hu_False|78_98 (ssRNA)
# RNA: GGGAGUUCUACAGUCCGACGAUCGAGACACUGGGGUGGAUGGCACCCACCUCUGUUUGCUAGCCUCCCACUAAGACUGUUAUUUUGGGAUUCAUGGCCUUGAAUAUCAAGAGGGAAAGGAAGAGGAUGGAAAGAGUCAAGAGUCAACAGAGGAUUGAGCAUCA
# B12: chr10:126975481:126975482:-_ENSMUSG00000040249_ENSMUST00000049149|mus_mus|FALSE|FALSE (ssRNA)
# RNA: GGGAGUUCUACAGUCCGACGAUCUUCAGCCCUAGGAGCCACAGAGGGGGCGCUAGAGAGGGGAGGGCCUGUCUGGAAGGGAUACUGAGCAUGGCCAUCUGAGAGGUGCCCCUGAAAGUGGGAGCUGGGGUUUGGGGUGACUUCCAACAGAGGAUUGAGCAUCA
# B13: chr7:151048522:151048523:+_ENSG00000013374_ENST00000566856|hu_mus|hu_hu_hu_mus_True|1_108 (ssRNA)
# RNA: GGGAGUUCUACAGUCCGACGAUCCUGCUUCUUAUUUAUUACGAUCUUGAUGUAAUUUUCUUGAAAUCCGAAAGUUUCAGCUAUUUGACACCUCAGGUCUCUACCAGUGACAUGCAAGCGGGUCUCCAACAAGCUUUUCCUAUCCAACAGAGGAUUGAGCAUCA
# B14: 74685878_74685998_698_CDS_ENSG00000168411_ENST00000361070|human|control|control (ssRNA)
# RNA: GGGAGUUCUACAGUCCGACGAUCGCUGUCACUGUCAGAAUCAGAACUACUAGACACCUGCAACUCUUCAGAUACAGGAUUCCUAGUCUCUGAAUCAUAAGUGGUAGCUGGCAAGUCAGGCUGGGUCCUGCUCACCUGAAAGUACAACAGAGGAUUGAGCAUCA
# B15: chr5:37680062:37680063:+_ENSMUSG00000029121_ENSMUST00000031004|mus_hu|mus_mus_mus_hu_False|38_98 (ssRNA)
# RNA: GGGAGUUCUACAGUCCGACGAUCUUUGGGUGUAGCUGGCACCUCGUACACAGGACCGUCAUACAUGCCCCUGGAAACCCCUUGCAAUCCAAAAACCUUGCUUCUGAUUUUGACGCGCUGGUACAGGUGCUCCGGGAACGCCUUCAACAGAGGAUUGAGCAUCA
# B16: chr15:8067299:8067300:+_ENSMUSG00000022142_ENSMUST00000163765|mus_hu|FALSE|FALSE (ssRNA)
# RNA: GGGAGUUCUACAGUCCGACGAUCAAUUCUGCCAUUAUCAGUGGAAGUUAUUGUUAAAAGGUAAGUAUUAUCAGUAGGAAGAGAAUAUAAAGGAUCUGGAAGCAACUGCAUUCCACCAGACAAACUAUCAUUAAGAACUCCAGACAACAGAGGAUUGAGCAUCA
# B17: chr5:54693298:54693299:+_ENSG00000039123_ENST00000230640|hu_hu|motif|central (ssRNA)
# RNA: GGGAGUUCUACAGUCCGACGAUCUUUUAAAACACUCUGUCUAUUGUCCACCGGCCGAAGGUCUUUAGGAAUGUAAAGCCGGACACUGCUGAUAGCAGACAGGAGAUGCACCAAAACUGGGACAACCUGCAUCUCUCCUUUCUCCAACAGAGGAUUGAGCAUCA
# B18: chr8:117878989:117878990:-_ENSG00000164754_ENST00000297338|hu_hu|hu_hu_hu_mus_True|18_48 (ssRNA)
# RNA: B10 RNA with C117U, G118U, A121G, G122C, U126C, U127G, G130U, U131G, G133C, C136G
# B19: 64572114_64572234_1574_CDS_ENSG00000133895_ENST00000312049|human|control|control (ssRNA)
# RNA: GGGAGUUCUACAGUCCGACGAUCCUGGCCGGUGCCCAGGCCCUUGUCCAGUGCUGGCUUCUUGGGCGGCGGGGGCUCCUCUGGCUUGGACUCCCGCCGUGGGCCCCGCCGCCGGCCUUCCCGGGCUUCCUCGCCCCACGGCUCCAACAGAGGAUUGAGCAUCA
# B20: chr3:102850973:102850974:+_ENSMUSG00000068823_ENSMUST00000029446|mus_mus|motif|central (ssRNA)
# RNA: GGGAGUUCUACAGUCCGACGAUCACGAUGAUCUGAAUGGGAAUGGAAUGAAACCGUGCCCUUGGGAAGUUUUUUAAUCCGGAUAGCAUGAUUUCUUUGGGCAGAGAGCAUAUCAGGAACCACAGUAAACUCUACUUCAUCUGCCAACAGAGGAUUGAGCAUCA
# B21: chr7:140404665:140404666:+_ENSG00000090266_ENST00000247866|hu_hu|hu_hu_hu_mus_False|38_88 (ssRNA)
# RNA: GGGAGUUCUACAGUCCGACGAUCUGCUCCUACUCGUCCAGAGAGUUUACACCUUCAGUCCUCGUCAUCAGGAGGGAUUCCCAGUUCUUCAUCUGUCCACUGGGAAGGAUCUGGAUAUGAAAAGUGACCCAGCACAGCAUCCGACAACAGAGGAUUGAGCAUCA
# B22: chr15:43699750:43699751:-_ENSG00000067369_ENST00000382044|hu_mus|FALSE|FALSE (ssRNA)
# RNA: GGGAGUUCUACAGUCCGACGAUCACACUUGAGCACCGAGGCUGGGCAUGAGGGGUCUGUCACCACCACAUCAAAUACCCCUAAAGCAAUGUCUUUGUUGUGGGCACUUGAAUGGUGCUGCUUCACAGAGGCUGCCCCUCCAGUCAACAGAGGAUUGAGCAUCA
# Molecular target: T1, UNK ZnF1-3
# Assay: nsRBNS (natural sequence RNA bind-n-seq); RBNS binding buffer (assumed for nsRBNS): 25 mM Tris pH 7.5, 150 mM KCl, 3 mM MgCl2, 0.01% Triton X-100, 500 ug/ml BSA, 20 U/ml SUPERase-In, 4 C; UNK is unkempt and MSI1 is Musashi-1; names of the RNAs are library labels; protein concentration not given here; high values mean tight binding
row,Binder,binding signal [enrichment R]
1,B1,0.91
2,B2,2.28
3,B3,1.33
4,B4,2.43
5,B5,1.07
6,B6,0.824
7,B7,1.04
8,B8,1.14
9,B9,2.02
10,B10,1.42
11,B11,1.34
12,B12,1.77
13,B13,0.838
14,B14,0.631
15,B15,0.755
16,B16,1.42
17,B17,0.864
18,B18,1.39
19,B19,1.79
20,B20,1.24
21,B21,1.56
22,B22,0.903
